B1: PhoQ; a variant is named by its letters at X, in order, P23837 (parent)
chain: MKKLLRLFFPLSLRVRFLLATAAVVLVLSLAYGMVALIGYSVSFDKTTFRLLRGESNLFYTLAKWENNKLHVELPENIDKQSPTMTLIYDENGQLLWAQRDVPWLMKMIQPDWLKSNGFHEIEADVNDTSLLLSGDHSIQQQLQEVREDDDDAEMTHSVAVNVYPATSRMPKLTIVVVDTIPVELKSSYMVWSWFIYVLSANLLLVIPLLWVAAWWSLRPIEALAKEVRELEEHNRELLNPATTRELTSLVRNLNRLLKSERERYDKYRTTLTDLTHSLKTPLXXLQXXLRSLRSEKMSVSDAEPVMLEQISRISQQIGYYLHRASMRGGTLLSRELHPVAPLLDNLTSALNKVYQRKGVNISLDISPEISFVGEQNDFVEVMGNVLDNACKYCLEFVEISARQTDEHLYIVVEDDGPGIPLSKREVIFDRGQRVDTLRPGQGVGLAVAREITEQYEGKIVAGESMLGGARMEVIFGRQHSAPKDE

The other results are listed elsewhere or left out. Some results are limits rather than exact numbers.

In the assay the parent is B1. The assay can be described thus: enrichment ratio after two sorts for PhoP signalling (ratio (wild type AVST 3.29)); higher = more functional. The conditions noted are these: with PhoP (E. coli).
Consider LYST, for which the enrichment ratio was at most 0.25.

For the variant INND, the enrichment ratio is at most 0.25.

In the case of MRIG, the enrichment ratio was at most 0.25.

For the variant WFAI, the enrichment ratio was at most 0.25.

Consider DIRM, for which the enrichment ratio was at most 0.25.

As to DSYQ, the enrichment ratio was at most 0.25.

In the case of MNLM, the enrichment ratio was 15.1.

PFEG: the enrichment ratio was at most 0.25.

With THYE, the enrichment ratio is at most 0.25.

On to GFLY, for which the enrichment ratio is at most 0.25.

On to VCFY, for which the enrichment ratio is at most 0.25.

As to NQYN, the enrichment ratio was at most 0.25.

Consider IWMK, for which the enrichment ratio is at most 0.25.

Consider RDTK, for which the enrichment ratio was at most 0.25.

FCYV: the enrichment ratio was at most 0.25.

For the variant HLYH, the enrichment ratio was at most 0.25.

Consider HFGI, for which the enrichment ratio was at most 0.25.

Regarding CLSI, the enrichment ratio was at most 0.25.

As for NMTV, the enrichment ratio was at most 0.25.

For the variant YDLY, the enrichment ratio is at most 0.25.

As to PYLW, the enrichment ratio was at most 0.25.

In the case of DRRC, the enrichment ratio is at most 0.25.

In the case of MTYI, the enrichment ratio was 10.3.

As for FPAR, the enrichment ratio was at most 0.25.

Take CFAL: the enrichment ratio is at most 0.25.

As to VTRV, the enrichment ratio is at most 0.25.

As to WWAF, the enrichment ratio was at most 0.25.

ARNA: the enrichment ratio was at most 0.25.

In the case of FIKH, the enrichment ratio is at most 0.25.

Turning to TGEC, the enrichment ratio came out at 1.95.

As to IRSC, the enrichment ratio is at most 0.25.

For RTEL, the enrichment ratio is at most 0.25.

For QHAC, the enrichment ratio is at most 0.25.

Take CHRH: the enrichment ratio is at most 0.25.

Regarding RNTV, the enrichment ratio was at most 0.25.

On to GMSW, for which the enrichment ratio was at most 0.25.

Consider PPAW, for which the enrichment ratio is at most 0.25.

With PIWW, the enrichment ratio is at most 0.25.

As for NNPD, the enrichment ratio was at most 0.25.

For VWPI, the enrichment ratio is at most 0.25.

On to LWTA, for which the enrichment ratio is at most 0.25.

As to SAQK, the enrichment ratio was at most 0.25.

As for GECE, the enrichment ratio is at most 0.25.

Take NLDN: the enrichment ratio was at most 0.25.

For FENT, the enrichment ratio was at most 0.25.

As to HYRT, the enrichment ratio is at most 0.25.

Take KHPF: the enrichment ratio is at most 0.25.

With QMVE, the enrichment ratio is at most 0.25.

For MNLH, the enrichment ratio is at most 0.25.

With DYAR, the enrichment ratio was at most 0.25.

Turning to SLEC, the enrichment ratio was at most 0.25.

As to YGWW, the enrichment ratio was at most 0.25.

Take LWTH: the enrichment ratio is at most 0.25.

With TMLG, the enrichment ratio was 11.6.

Turning to IKHW, the enrichment ratio was at most 0.25.

As for AEYR, the enrichment ratio was at most 0.25.

Turning to KHVV, the enrichment ratio was at most 0.25.

Take DNKG: the enrichment ratio was at most 0.25.

On to STDW, for which the enrichment ratio was at most 0.25.

Turning to SNGF, the enrichment ratio was found to be 9.13.

For WTPL, the enrichment ratio is at most 0.25.

With AHDI, the enrichment ratio was at most 0.25.

As for GDNH, the enrichment ratio was at most 0.25.

Regarding RYLS, the enrichment ratio was at most 0.25.

Turning to EALV, the enrichment ratio was at most 0.25.

For DNVT, the enrichment ratio is at most 0.25.

With MAHW, the enrichment ratio was at most 0.25.

Consider FFQE, for which the enrichment ratio is at most 0.25.

On to EVRV, for which the enrichment ratio was at most 0.25.

As to LVHS, the enrichment ratio is at most 0.25.

As to GPES, the enrichment ratio is at most 0.25.

As to FKYF, the enrichment ratio was at most 0.25.

Turning to SILR, the enrichment ratio came out at 5.75.

Turning to PLRE, the enrichment ratio was at most 0.25.

With TPQI, the enrichment ratio was at most 0.25.

With NIIN, the enrichment ratio is at most 0.25.

For EHRQ, the enrichment ratio is at most 0.25.

Turning to EAEF, the enrichment ratio was at most 0.25.

Take EKWL: the enrichment ratio is at most 0.25.

As to FAPA, the enrichment ratio was at most 0.25.

As for VGQM, the enrichment ratio was determined as 0.803.

As to AWML, the enrichment ratio was at most 0.25.

As for AYHH, the enrichment ratio was at most 0.25.

Regarding PTRA, the enrichment ratio is at most 0.25.

Consider FKII, for which the enrichment ratio is at most 0.25.

In the case of FYPD, the enrichment ratio is at most 0.25.

On to LEWC, for which the enrichment ratio stood at 17.6.

On to DEVY, for which the enrichment ratio was at most 0.25.

For the variant AGSY, the enrichment ratio amounted to 14.7.

As to HEQR, the enrichment ratio is at most 0.25.

In the case of RGFS, the enrichment ratio is at most 0.25.

LDLE: the enrichment ratio was at most 0.25.

For the variant VFFI, the enrichment ratio is at most 0.25.

Consider IWFQ, for which the enrichment ratio was at most 0.25.

As to DSPL, the enrichment ratio was at most 0.25.

LFWH: the enrichment ratio is at most 0.25.

In the case of TPKA, the enrichment ratio is at most 0.25.

For the variant DLCA, the enrichment ratio was at most 0.25.

Regarding TKWD, the enrichment ratio was at most 0.25.

MPHQ: the enrichment ratio is at most 0.25.

Regarding YENH, the enrichment ratio was at most 0.25.

As for WNTQ, the enrichment ratio is at most 0.25.

Regarding PVPP, the enrichment ratio is at most 0.25.

Turning to TYCP, the enrichment ratio was at most 0.25.

Turning to SWMI, the enrichment ratio is at most 0.25.

As to GTCY, the enrichment ratio came out at 1.72.

For MCCK, the enrichment ratio is at most 0.25.

For the variant VIMM, the enrichment ratio was at most 0.25.

With YVLI, the enrichment ratio came to 1.33.

As for WYPK, the enrichment ratio was at most 0.25.

As for GTDL, the enrichment ratio was at most 0.25.

On to LWRG, for which the enrichment ratio was at most 0.25.

Take SYSV: the enrichment ratio was at most 0.25.

Consider ALQS, for which the enrichment ratio was at most 0.25.

As to IKYM, the enrichment ratio is at most 0.25.

For the variant YWMM, the enrichment ratio was at most 0.25.

As for DKPA, the enrichment ratio is at most 0.25.

With SKYQ, the enrichment ratio was at most 0.25.

With NSAV, the enrichment ratio came out at 2.12.

For the variant WWFI, the enrichment ratio was at most 0.25.

On to NRLA, for which the enrichment ratio is at most 0.25.

For the variant DNAI, the enrichment ratio is at most 0.25.

As to DEDW, the enrichment ratio is at most 0.25.

On to FYMG, for which the enrichment ratio is at most 0.25.

Consider NRPF, for which the enrichment ratio is at most 0.25.

Turning to ELHC, the enrichment ratio was at most 0.25.

For DSLF, the enrichment ratio is at most 0.25.

For FDYG, the enrichment ratio was at most 0.25.

Take KMVL: the enrichment ratio is at most 0.25.

For the variant MNGY, the enrichment ratio was 6.65.

As to HSEW, the enrichment ratio came out at 2.17.

With MMHD, the enrichment ratio was at most 0.25.

With GRHF, the enrichment ratio was at most 0.25.

Take GTVA: the enrichment ratio was at most 0.25.

As for ITYC, the enrichment ratio was at most 0.25.

With DKSS, the enrichment ratio is at most 0.25.

Turning to AGKG, the enrichment ratio was at most 0.25.

Regarding HGQV, the enrichment ratio was at most 0.25.

For the variant QDSA, the enrichment ratio is at most 0.25.

For the variant QCSH, the enrichment ratio was 9.17.

For NWPH, the enrichment ratio is at most 0.25.

As for VETC, the enrichment ratio is at most 0.25.

ECHW: the enrichment ratio was at most 0.25.

Take IACP: the enrichment ratio is at most 0.25.

For VTDA, the enrichment ratio was at most 0.25.

As to GMVH, the enrichment ratio was at most 0.25.

Take IIYA: the enrichment ratio was at most 0.25.

For ISAH, the enrichment ratio is at most 0.25.

For LERQ, the enrichment ratio was at most 0.25.

On to ERAT, for which the enrichment ratio is at most 0.25.

As for TTWF, the enrichment ratio stood at 2.06.

Regarding SLKI, the enrichment ratio stood at 0.521.

For the variant VNQR, the enrichment ratio was at most 0.25.

FTGN: the enrichment ratio is at most 0.25.

In the case of QSWR, the enrichment ratio is at most 0.25.

With HYHQ, the enrichment ratio was at most 0.25.

Turning to GCMV, the enrichment ratio is at most 0.25.

Take YQYF: the enrichment ratio was at most 0.25.

On to GWTF, for which the enrichment ratio is at most 0.25.

For KRDT, the enrichment ratio was at most 0.25.

On to HSGW, for which the enrichment ratio amounted to 2.07.

As for FAQT, the enrichment ratio is at most 0.25.

On to HMSG, for which the enrichment ratio was at most 0.25.

In the case of NDLD, the enrichment ratio was at most 0.25.

For PPCL, the enrichment ratio was at most 0.25.

As for LMRS, the enrichment ratio is at most 0.25.

As for LNIV, the enrichment ratio was at most 0.25.

Turning to KPCS, the enrichment ratio is at most 0.25.

As for YCDH, the enrichment ratio was at most 0.25.

Take YDVK: the enrichment ratio is at most 0.25.

For VVNW, the enrichment ratio was at most 0.25.

SVSM: the enrichment ratio came out at 13.3.

Take TLQL: the enrichment ratio was determined as 13.

As to NHIQ, the enrichment ratio was at most 0.25.

As to TRMW, the enrichment ratio was at most 0.25.

Consider FDHE, for which the enrichment ratio was at most 0.25.

Regarding YQFV, the enrichment ratio was at most 0.25.

For the variant IWIC, the enrichment ratio was at most 0.25.

Consider TCTP, for which the enrichment ratio worked out at 0.8.

With RQAM, the enrichment ratio is at most 0.25.

As to GDIG, the enrichment ratio was at most 0.25.

In the case of LANY, the enrichment ratio is at most 0.25.

Consider VPPE, for which the enrichment ratio was at most 0.25.

With MFEE, the enrichment ratio was at most 0.25.

As to HSEP, the enrichment ratio was at most 0.25.

In the case of YHTM, the enrichment ratio is at most 0.25.

Turning to TAQL, the enrichment ratio was found to be 8.71.

In the case of ALAK, the enrichment ratio was 0.502.

MIRS: the enrichment ratio is at most 0.25.

As to RSNI, the enrichment ratio is at most 0.25.

In the case of IFVA, the enrichment ratio is at most 0.25.

Consider NKEC, for which the enrichment ratio was at most 0.25.

For IYKR, the enrichment ratio is at most 0.25.

For KCAF, the enrichment ratio was at most 0.25.

SCSH: the enrichment ratio is 6.66.

The values are drawn from a collection of fitness landscapes (doi:10.1126/science.1257360).
